At least one read-out could not be matched to a standard name with certainty.
Molecular target: T1, amino acid transporter (PPP1-20, SEQ ID No. 1) in 22574d::PPP1-20 yeast strain (Arabidopsis thaliana, UniProt Q42400)
T1 construct: expressed in transfected cells; host or cells: Saccharomyces cerevisiae strain 22574d transformed with pFL61-ppp1-20
T1 sequence (Q42400 1-485): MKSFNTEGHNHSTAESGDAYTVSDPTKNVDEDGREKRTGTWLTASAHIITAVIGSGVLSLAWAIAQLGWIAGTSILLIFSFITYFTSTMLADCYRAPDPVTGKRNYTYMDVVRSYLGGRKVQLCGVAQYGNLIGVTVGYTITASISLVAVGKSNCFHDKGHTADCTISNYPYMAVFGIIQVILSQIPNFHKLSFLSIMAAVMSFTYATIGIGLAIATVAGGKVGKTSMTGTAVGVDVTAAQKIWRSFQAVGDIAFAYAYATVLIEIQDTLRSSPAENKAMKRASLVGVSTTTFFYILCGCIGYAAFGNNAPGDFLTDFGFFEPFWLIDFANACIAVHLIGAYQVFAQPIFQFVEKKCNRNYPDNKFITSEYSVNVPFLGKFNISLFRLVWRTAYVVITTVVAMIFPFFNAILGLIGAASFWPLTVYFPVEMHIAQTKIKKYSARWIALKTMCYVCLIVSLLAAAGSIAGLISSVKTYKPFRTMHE
Test: Competition of 14C-L-proline uptake by excess of amino acids and analogues in 22574d::PPP1-20 yeast strain
Assay type: cell-based
Experimental: After centrifuging the culture, the cells are washed and taken up in 100 mm tris/HCl pH 4.5, 2 mM MgCl2 and 0.6M sorbitol. Around 100 μL of the suspension was added to a solution of 0.5 mM L-proline plus 1 μCi ^14C labeled L-proline in 100 μL of the same buffer. The uptake of the labeled amino acid was measured by the process described by Cirillo (1989, Meth Enzymol 174: 617-622). The uptake of the labeled amino acid was compared, on the one hand, in co-incubation with protein modifying substance diethyl pyrocarbonate which is an inhibitor of the amino acid transport in membrane vesicles from Beta vulgaris, and, on the other hand, in co-incubation with other protein modifying substances. A competition experiment in which the specificity of the transporter could be read off with various amino acids and analogues is shown in Table II for PPP1-20 and in FIG. 4 for AAP2. An analogous experiment in which a competition for histidine uptake in the line JT16::AAP2 was tested is described in Example 5.

Row | Compound | % remaining transport activity (1 x excess of competitor) | % remaining transport activity (10 x excess of competitor) | % remaining transport activity (4 x excess of competitor)
1 | N[C@@H](CC(=O)O)C(=O)O [aspartic acid] | 78% | 27% | –
2 | N[C@@H](CS)C(=O)O [cysteine] | – | – | 21%
3 | NCCCC(=O)O [gamma-aminobutyric acid] | – | – | 90%
4 | NC(=O)CC[C@H](N)C(=O)O [glutamine] | – | – | 27%
5 | N[C@@H](Cc1c[nH]cn1)C(=O)O [histidine] | 81% | 58% | 79%
6 | CC[C@H](C)[C@H](N)C(=O)O [isoleucine] | – | – | 67%
7 | N[C@@H](Cc1ccccc1)C(=O)O [phenylalanine] | 45% | 16% | –
8 | N[C@@H](CO)C(=O)O [serine] | 53% | 18% | –
9 | CC(C)[C@H](N)C(=O)O [valine] | – | 47% | 77%
